Assay results: the RNAGym collection of RNA variant scans (doi:10.7554/elife.90254)
Read counts are not given, so values of variants with three or more changes are uncertain.

B1: LINE1-mini (parent)
chain: GGCAGAGCUCAACACAGCGUGGCAAAGUGGCUGUGGCUAGACUGCC

Variants of: B1
Test: self-cleavage, relative activity (ratio to wild type); higher = more cleavage; in vitro, sequencing; the parent is a self-cleaving ribozyme

Variant	self-cleavage
C15G C23G G29A C31U G33C	0.23
A14U G19A U20G G22C C46A	0.05
A14U U28C A39U	0.07
C15G G30A A39U	0.02
C15A G19A G21A G44U	0.02
A14U C15G U32A C37G	0.03
A14U U20A G30A C37G	0.08
C15G G17A G21A	0.13
C15A G29C G36A	0.01
A14U C15U G36C U43C	0.08
C15A A25U G29C	0.06
A14G G40U C46A	0.02
C15A C23A A25U G35U C42A	0.04
A14G G30C U32C	0.16
A14U C18A G33C A39U	0.02
A14G G27U C45G	0.07
A14U G29C G36U	0.02
C15A G35U C45A	0.01
C15G G17U C23U A25U	0.01
A14G G22U U38A G44C	0.1
C15G A16C G17U G29A C31A	0.01
A14U C23G G40A	0.07
C15U C23A U28G	1.11
C15G G30C U38A	0.03

Variant	self-cleavage
A14U G17U A25C U32A U34C	0.11
C15A A16U C18G C23G	0.08
A14U G27A U32G	0.06
C15U A25G G36U	0.08
C15U A26C G33C C42G	0.11
A14U G17A C45U	0.03
C15A A25U C37G G40A	0.02
C15A G17A U20A A25G	0.08
C15U A39G G40C A41U G44A	0.2
C15U G17A G21A	0.07
C15A U32C G33C	0.02
A14U G19U U20C	0.48
C15A G33A C42G	0.01
C15A A16U U20A U34C G44C C46U	0.02
A14U C15U G40A	0.04
A14U U28C G29C G40C C45U	0.07
A14U C15G A16G A25G G35C	0.06
C15A C18A U38A A39C	0.02
A14G G27A U34C	0.33
A14U C18A G36U G40U	0.03
C15U C37U U43C	0.01
C15G A24U C31A	0.02
C15U A25C U32G C37A	0.02
C15U G17A A39C	0.04

Variant	self-cleavage
C15A G22C G40C G44U	0.01
C15A C18U G21A	0.03
C15A G40U A41U	0.22
C15U A16U G35U	0.03
A14U G27A G29A	0.04
A14U C15A G19A U43A	0.16
C15A G17C A25C G40U	0.05
A14G G33C G36A C42A	0.07
A14U G29C C31A U34A	0.29
C15U A25C G30A	0.15
C15A C23G G44C	0
C15A G17C G35C	0.02
A14U A24C G27A	0.09
C15G G36U C37U	0.03
C15G U20C A26U U34C G40A	0.03
A14U C15A G17A G19C U38A	0.02
A14U A16U G19U C23U G35C	0.05
C15G G30C G40C	0.01
A14U G21C G33C G36A A39G	0.01
C15G G27A G33U C37G G40C	0
A14U G21U U34G	0.24
A14U C18A G22U A25G G27U C37U A41U C46A	0.04
A14U A25C G35U C42G	0.09
C15G C31U G44U	0.01

Variant	self-cleavage
C15U A16C G17A	0.03
C15A C18A G33C A39U	0.01
C15A C18A C37A A39G C42U	0.01
C15G G22C G30U C46A	0.02
C15U A16G A25C U28C C31U C45U	0.01
C15A G19A C31G	0.07
A14U A16G U20C A25C A26U G33U G40U	0.03
A14U U28G C42U	0.11
C15U C23G A25C U38A	0.19
A14G U20C G22A C23G G40C A41C	0.1
C15G C18G G21A A39C	0.02
C15G C31A C37G C45G	0.05
A14U G22U A24U G40A C42U	0.11
A14U A41U U43C	0.07
C15A G19A A24U G33C	0.01
A14U G19C C31G	0.03
C15A C31U C45U	0.05
A14U G19C C46G	0.37
C15U A24G G44A	0.2
A14U G40U C45A	0.15
C15A C18A A24C U43G	0.02
C15A C18G G29U	0.01
A14U G35A G44C	0.05
C15G G19U A41G	0.04

Variant	self-cleavage
C15A A26G G35C G40U	0.01
A14U G36C G40A	0.02
C15A G17A G36C	0.02
A14U C15U G27C C31U U32C G36C C37A C46G	0.07
A14G G40C C42A	0.24
C15G C23U A24G G44C	0.01
A14U C18A C31A U43G C45A	0.03
C15A G21C A24G U32G C45U	0.03
C15U C37G A41C	0.04
C15G A24C G36C G40C	0.07
C15G C31A G36C	0.02
C15G G17A G44C	0.03
C15A A16U G29U	0.05
C15G A16C G35A G36C	0.23
C15A C18G A24U U28A U43G G44C	0
C15A G17A C18A A25U	0.07
C15G A24U U34G C37U	0.03
C15U C18G A26G U34C	0
C15U C23A U38A A41G C42A	0
A14U C15U G27C	0.11
C15U C37A G44U	0.07
A14U C15U G30U U32A C45U	0.02
C15A A41C C42A	0.03
C15G A16C G21A U38C	0.05

Variant	self-cleavage
C15A G33U A39U	0.01
A14U U20A C31U C42G U43A	0.07
C15G G21U A41U	0.03
C15A G17C C18G	0
C15G C23A A41C	0.04
C15A C18A A24C C37U	0
A14G U20C U32G G44U	0.02
C15A G29C C37A A41G	0.04
C15U C18G G29U G33U	0.16
A14U C15U G22U C31U C46A	0.06
C15A C18G U20G U32A	0.01
C15A C37U G40A	0.04
C15U A16C C45U	0.03
C15U C23A A39G	0.12
C15G U28A G30A G33A C37U	0.01
C15U G17A U28C C46A	0.08
C15G G19A A39G A41G	0.03
C15A U34G C46U	0.01
A14G G35U U38A	0.1
C15U A24U U28C	0.2
C15G G27C G35U	0
C15G A24C U32C G35A C42G	0
C15G G27C A39G C42A	0.01
C15A U32C A39C	0.03

Variant	self-cleavage
A14G G36C C46G	0.12
C15U A16G U28C	0.07
C15G G35C C37U A39G C42G	0
C15G G19U C37G U43A	0
C15U A25C U28C	0.88
A14U G29C U34C	0.07
C15U A16C C37G	0.05
C15G A16C G19U	0.01
C15U C23U C31A	0.07
C15A G21U G44C	0.04
C15A U28A G33U G36C A41G	0.01
C15G C18A G19A U38A C46U	0.02
C15G A24U C31A A41C C42U C45U	0.02
A14U U28G G35A	0.01
A14U C15U C18G	0.06
C15U A41U C45U	0.26
A14G U38C A41G	0
C15A G19C G27U C46U	0.13
A14U G19A G21C A24G	0.18
A14U C18G C37G C42A G44A	0.02
C15A C31U G35U	0.07
A14U U28G C31A A41U	0.08
A14U G27A U34C C42G C45U	0.1
